Results as given in PubChem BioAssay (NCI).
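Compound exposure: 48 hours, 5 concentrations, 96-well plates. GI50 = concentration required for 50% inhibition of growth. At the TGI there is no net growth.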

System: NCI-H322M lung
Experiment: inhibition of tumour cell growth, NCI panel, 48 h

Row | Structure (SMILES) | TGI | GI50
1 | c1ccc(SC2CCSc3ccccc3C2Sc2ccccc2)cc1 (configuration not stated) | > 100 µM | –
2 | O=C(N/N=C1/C(=O)N(c2ccc(Cl)cc2Cl)C(=O)C(=O)C1c1nc2ccccc2o1)c1ccccc1O (configuration not stated) | > 100 µM | –
3 | CCOC(=O)C(C)(C)Oc1ccc2c(C)c(-c3ccc(Cl)cc3)c(=O)oc2c1 | > 100 µM | –
4 | Cn1c(=O)c2c(no[n+]2[O-])c2ccccc21 | 66.5 µM | –
5 | COC(=O)[C@]1(C)CCCC2(C)C1CC[C@H]1C=C(C)[C@H]3CCC12C3 (some centres not stated) | > 100 µM | –
6 | COC12C=C/C(=C(/C(=O)OCc3ccncc3)C(=O)CCCCCCCCC3(OC)C=C/C(=C(/C(=O)OCc4ccncc4)C(=O)CCCCCCCC1)O3)O2 | 2.05 µM | 830 nM
7 | CC1=CC(=O)[C@@H](O)[C@]2(C)[C@H]3[C@@]4(O)OC[C@]35[C@H]([C@@H](C)[C@H]4O)[C@@H](O)C(=O)O[C@@H]5C[C@@H]12 | 25.8 µM | –
8 | CSc1nncc2[nH]c(C)nc12 | > 100 µM | –
9 | O=C(NS(=O)(=O)OCC(Cl)(Cl)Cl)SCCC(F)(F)C(F)(F)C(F)(F)C(F)(F)C(F)(F)C(F)(F)F | 37.3 µM | –
10 | CC1(C)OC2C(O)CN3CCS[C@H]3C2O1 (some centres not stated) | > 100 µM | –
11 | C=CCCCCCCCCCCC1(O)C=CC2=[N+](CCCCCN=C(N)N)CCCN21 (configuration not stated) | 28.1 µM | 11900 nM
12 | CC#C[P+](c1ccccc1)(c1ccccc1)c1ccccc1 | 41.4 µM | –
13 | C[C@@H]1C[C@](O)([C@@H](C)Cl)C(=O)O[C@@H]2CCN3CC=C(COC(=O)[C@]1(C)O)[C@H]23 | > 100 µM | –
14 | O=C(NCCCN(CCCCN(CCCNC(=O)C(F)(F)F)CCCc1ccccc1)CCCc1ccccc1)C(F)(F)F | 4.94 µM | –
15 | Cc1cccc(C(C)C)c1NC(=O)CC1Sc2ccccc2NC1=O (configuration not stated) | > 100 µM | –
16 | Cc1ccc(-c2c3c(n(C4OC(CO)C(O)C(O)C4O)c(=S)c2C#N)CC(C)(C)CC3=O)cc1 (configuration not stated) | > 100 µM | –
17 | CCCCn1c(C)c2c(c1C)C(=O)N(CC(O)CN1CCc3ccccc3C1)C2=O (configuration not stated) | > 100 µM | –
18 | O=C(NC(CO)Cc1ccc(Oc2cc(CC(CO)NC(=O)OCc3ccccc3)ccc2OC(=O)OCc2ccccc2)cc1)OCc1ccccc1 (configuration not stated) | 92.2 µM | –
19 | CC(=O)Nc1ccc(-c2nc3ccccc3s2)cc1 | > 100 µM | –
20 | CCOc1ccc(N2C(=O)/C(=C/c3ccc(N(CCC#N)CCC#N)cc3)N=C2c2cc([N+](=O)[O-])ccc2Cl)cc1 | > 100 µM | –
21 | O=C1C[C@H]2[C@@H](O1)[C@@H](O)CN1C(=O)c3ccccc3[C@H]21 | > 100 µM | –
22 | O=C(O)c1cccnc1 | > 100 µM | –
23 | Cc1ccc(NC(=O)C2C(=O)N(c3ccc(C)c(C)c3)C(=O)C2N=N)cc1C (configuration not stated) | > 100 µM | –

Row | Structure (SMILES) | TGI | GI50
24 | O=C1NN=C2C=C(c3ccc(Cl)cc3)CC(c3cccc(Cl)c3)C12 (configuration not stated) | > 100 µM | –
25 | Ic1ccc(-n2nnnc2-c2cnoc2-c2ccccc2)cc1 | > 83.6 µM | > 50400 nM
26 | CCCn1c(N)c(C(=O)N/N=C(/C)c2cc3cccc(OC)c3o2)sc1=S | > 100 µM | 52200 nM
27 | COc1ccc(-c2c(C#N)c(O)n(NS(=O)(=O)c3ccc(C)cc3)c(=O)c2C#N)cc1 | > 100 µM | –
28 | O=c1c2c(-c3ccccc3)onc2n(-c2ccccc2)c(=O)n1-c1ccccc1 | > 100 µM | –
29 | Cc1nc2ccccc2nc1-c1ccc(N=[N+]([O-])c2ccc(-c3nc4ccccc4nc3C)cc2)cc1 | > 100 µM | –
30 | O=C1c2ccccc2C2(O)c3cc4ccccc4cc3OC12O (configuration not stated) | > 100 µM | –
31 | O=C(CC(O)(C(F)(F)F)C(F)(F)F)c1cc(CC(=O)C(O)(C(F)(F)F)C(F)(F)F)cc(CC(=O)C(O)(C(F)(F)F)C(F)(F)F)c1 | 8.83 µM | –
32 | CCCNC(=S)/N=C/c1c(O)c2ccccc2[nH]c1=O | > 100 µM | –
33 | CCOC(=O)c1cc(C2(O)CCN(CC(C)CC)C2=O)c(-c2cc(C)no2)[nH]1 (configuration not stated) | > 100 µM | –
34 | O=c1cc(-c2ccccc2)[nH]c2c(S)cccc12 | > 100 µM | –
35 | CC(CCC#N)(CCC#N)C(=O)CC(O)(C(F)(F)F)C(F)(F)F | 35.8 µM | –
36 | O=C1[C@@H]2C3c4ccccc4C([C@@H]2C(=O)N1c1ccccc1)S3(=O)=O | > 100 µM | –
37 | COC(=O)CN(C)P(=O)(N1CC1)N1CC1 | > 100 µM | –
38 | N#C/C=C(\c1ccc([N+](=O)[O-])cc1)n1nnc2cc(Cl)c(Cl)cc21 | 11.4 µM | 3020 nM
39 | O=P(O)(Cc1ccccc1)c1ccccc1-c1ccccc1 | > 100 µM | –
40 | O=C(NC(=O)c1cn(CCNCCO)c(=O)[nH]c1=O)OCc1ccccc1 | > 100 µM | –
41 | Cc1[nH]c2ccccc2c1-c1cc(-c2cc(-c3c(C)[nH]c4ccccc34)on2)no1 | > 100 µM | –
42 | CC1C[C@]2(C)C(=O)Nc3ccccc3[C@@H]2Nc2ccccc21 (some centres not stated) | 62.2 µM | –
43 | C[C@@]12CCC3C1C=C1C(=O)c4cc(O)ccc4C(=O)[C@]1(O2)[C@@]3(C)C=O | 19 µM | –
44 | C[C@H]1Oc2cc(cnc2N)-c2c(nn(C)c2C#N)CN(C)C(=O)c2ccc(F)cc21 | > 100 µM | 33200 nM
45 | COC1C(O)=C2C(=O)O/C(C)=C/C=C/C=C/C=C\CC(c3ccccc3)NC(=O)\C=C/C=C\C=C\C=C\[C@@]2(C)[C@@H]1O (some centres not stated) | 0.396 µM | –
46 | C1CSCCSCCS1 | > 100 µM | –

Row | Structure (SMILES) | TGI | GI50
47 | COc1cccc2c1C(=O)c1c(O)c3c(c(O)c1C2=O)CC(O)(/C(C)=N/NC(=O)CCC(=O)N/N=C(\C)C1(O)Cc2c(O)c4c(c(O)c2C(OC2CC(N)C(O)C(C)O2)C1)C(=O)c1c(OC)cccc1C4=O)CC3OC1CC(N)C(O)C(C)O1 (configuration not stated) | > 19 µM | 1340 nM
48 | Nc1nc2c(ncn2Cc2ccc(CO)cc2)c(=O)[nH]1 | > 100 µM | –
49 | CS(=O)(=O)CCCn1c(=O)c(Oc2ccc(F)cc2F)cc2cnc(NC3CCOCC3)nc21 | > 25 µM | > 25000 nM
50 | COc1ccc(C(OCC2OC(n3cc(C)c(=O)[nH]c3=O)CC2n2cc(Cn3cc(Br)c(=O)[nH]c3=O)nn2)(c2ccccc2)c2ccccc2)cc1 (configuration not stated) | > 100 µM | –
51 | CC(C)=C1C(=O)C[C@]2(C)C[C@H]3/C(=C(/C)CCC12)CC[C@@]3(C)O (some centres not stated) | > 50 µM | –
52 | C=CCc1cccc(/C=N/NC(=O)CN2CCN(Cc3ccccc3)CC2)c1O | 14.2 µM | 1370 nM
53 | O=[N+]([O-])c1ccc(S(=O)(=O)N=Ic2ccccc2)cc1 | > 100 µM | –
54 | Cc1ccc(-c2nc3ccc([N+](=O)[O-])cc3[nH]2)cc1 | > 100 µM | –
55 | Cc1cn2c(/C=C3\C(=O)Nc4ccc(O)cc43)c(-c3ccc(Cl)cc3)nc2s1 | 94 µM | 26600 nM
56 | COc1ccc(OC)c(C2Cc3cnc4nc(N)nc(N)c4c3C2)c1 (configuration not stated) | 66.3 µM | –
57 | COc1ccc(CN(Cc2ccc(OC)cc2)C(=O)CC2(O)C=CCC2)cc1 (configuration not stated) | > 100 µM | –
58 | CCCC(O)C(NC(=O)CCl)C(=O)O (configuration not stated) | > 100 µM | –
59 | O=C1CC(C[C@H](O)C2CCCCC2O)CC(=O)N1Cc1ccccc1 (some centres not stated) | > 100 µM | –
60 | C=CC(=O)N1CCC(C2CCNc3c(C(N)=O)c(-c4ccc(Oc5ccccc5)cc4)nn32)CC1 (configuration not stated) | > 100 µM | 2430 nM
61 | O=c1n(-c2ccccc2)c(=O)n2n1C1C=CC2C2C(C1)C2(Cl)Cl (configuration not stated) | > 100 µM | –
62 | CN(CCN(C)C(=S)NN)C(=S)NN | > 100 µM | –
63 | Cc1ccc(/C=C/c2c(C(=O)/C=C/c3ccc(C(F)(F)F)cc3)c(C)nc3ccccc23)cc1 | 2.81 µM | 1480 nM
64 | COc1cc(-c2nn(-c3cccc(NC(=O)Nc4ccc(Cl)c(Cl)c4)c3)cc2-c2ccncc2)ccc1Cl | > 50 µM | 1690 nM
65 | COC(=O)C1(OC(=O)Sc2ccccc2)CCN(C)CC1 | > 100 µM | –
66 | CC(C)=CCc1cc(O)cc2c1OC(C=C(C)C)C1=C2C(=O)C2=C(NCCS2(=O)=O)C1=O (configuration not stated) | 3.02 µM | 829 nM
67 | CC(C)=CCc1c(O)ccc2ccc(=O)oc12 | > 100 µM | –
68 | COc1ccc(CCN=C2OCc3ccccc32)cc1OC | > 100 µM | –
